# Experimental data published in PMC6212790.
# Some of the results follow. At the low end of the ranking, values are background and their order means little.
# Target: T1, GST-Rok (full length) (UniProt O34857)
# T1 sequence: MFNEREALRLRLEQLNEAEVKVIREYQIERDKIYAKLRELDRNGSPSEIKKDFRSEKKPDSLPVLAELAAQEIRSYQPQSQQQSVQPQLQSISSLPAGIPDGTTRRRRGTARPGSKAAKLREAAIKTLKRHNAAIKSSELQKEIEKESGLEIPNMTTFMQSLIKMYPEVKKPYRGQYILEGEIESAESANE
# Assay: protein binding microarray;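 further: rank score from −0.5 (least bound) to 0.5 (best bound)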
# Conditions: Rok is a gene silencer of Bacillus subtilis; high values mean tight binding; most listed sequences are background and not binding sites; double strand, one strand shown
row,Sequence,binding signal [E-score]
1,AGAATTCT,0.33
2,CGTATTCC,0.0633
3,CTGAGATA,0.0758
4,AGCTAGGA,-0.0554
5,AAAGTAAC,0.0799
6,ATATCATG,0.234
7,AAATACAT,0.348
8,CACGTGCC,-0.0911
9,AGCCCGGA,-0.16
10,AAGGATTA,-0.112
11,ATATCATC,0.253
12,GGATCCCA,-0.325
13,TGTGCGAA,-0.0566
14,ATATCAGC,-0.0781
15,CGCTAAGA,0.109
16,GGGGGACA,-0.316
17,CTGCCGTA,0.0216
18,AACAGGCA,-0.225
19,AGGCATAC,0.0929
20,ACGCTGAG,-0.163
21,TACACCAA,0.217
22,CCGAGAGC,-0.256
23,GATTGTCC,-0.128
24,AGAACGCC,-0.0347
25,CATACAAC,0.0896

row,Sequence,binding signal [E-score]
1,GAGGCCAA,-0.194
2,ATACAGCA,0.174
3,CGGTATCC,-0.102
4,GGAGGATA,-0.18
5,AGGCGTAT,-0.00773
6,GCATTTCC,-0.366
7,GGTCTCCA,-0.294
8,CTACCAGC,0.228
9,AGAAATTA,0.308
10,CGCACTGA,0.00319
11,CTGGTAAC,0.176
12,AGTGTCTA,0.0381
13,CCATTATA,0.238
14,AATAGCGA,0.0363
15,GAGCGCGC,-0.0491
16,ACGCATTA,0.241
17,CCACTTAG,-0.19
18,GGTCGACC,-0.245
19,CAGCCGAG,-0.162
20,CTCTCATA,-0.0869
21,AACCCTAA,-0.0824
22,CCGGCCGG,-0.279
23,CTACGGGA,-0.0694
24,ATTCATGC,0.18
25,ACGTCGCT,-0.102

row,Sequence,binding signal [E-score]
1,GGCGGCCC,-0.317
2,CCCGTCAG,-0.274
3,ACAGTTAC,0.278
4,ATGTTCGC,-0.141
5,CGATGCAG,0.136
6,CCGTCAAA,-0.115
7,ATTAAATA,0.278
8,CGTACTGA,-0.0141
9,AGATAGGC,0.223
10,CCCAGTCG,-0.307
11,CCGCGTGC,-0.285
12,CGCGCCTC,-0.338
13,TACACCTA,0.244
14,ATATAAAT,0.422
15,ATTACTAA,0.357
16,CGAGTGCG,-0.23
17,CTGTAGGA,0.0759
18,CCGAACCG,-0.165
19,GAGTCGCA,-0.166
20,CTGAGCGA,0.00537
21,CATAGACA,0.0191
22,GAAATGAA,0.111
23,CTTCCAGC,-0.106
24,AAAGAAAT,-0.155
25,TACAGCAA,0.101

row,Sequence,binding signal [E-score]
1,GAAGATGC,-0.0105
2,ATCCAGTC,-0.0125
3,ACCAAGAG,-0.082
4,ATAGGCGA,0.0448
5,CCTGCCGC,-0.38
6,GCAGAGAC,-0.215
7,CCTCGATC,-0.102
8,CAAAGGGC,-0.32
9,GAGTGCCA,-0.249
10,AATTTAAT,0.287
11,CAACCATG,-0.173
12,ACTTGGAT,0.0518
13,AGGAAAGC,-0.252
14,CTAAACAG,-0.0697
15,CGGAGCAG,-0.086
16,CCCGGCGG,-0.367
17,CTTCTGGA,-0.0733
18,AGGGAAGC,-0.295
19,GCAAAAAC,0.0325
20,AAGGTAAA,0.176
21,GAGTTCGA,-0.107
22,CTGTCACA,-0.192
23,ATCAGCCC,-0.234
24,ATTCATGA,0.146
25,AGGCTTAG,-0.21

row,Sequence,binding signal [E-score]
1,CTCAACAA,-0.0892
2,ACAGCTCC,-0.191
3,AGCCCCGG,-0.431
4,CTAACCGA,-0.186
5,ATTTGAGC,-0.0145
6,ATACTCTA,0.174
7,ACCCCACT,-0.312
8,TACGTTCA,0.0564
9,CTGTCGAA,0.0417
10,GTTGTTCA,0.0472
11,AGGAGAGA,-0.122
12,ACTGTTCT,0.0222
13,ATATCACG,0.24
14,CGCAATAA,0.185
15,GGTCGGGA,-0.156
16,ATAGCCGG,-0.102
17,CCCGGTAC,-0.0862
18,GTTGGGGA,-0.187
19,CTACCGAG,0.318
20,GAGTCGAA,-0.0875
21,CCACTGAG,0.0548
22,GGGAGGAA,-0.192
23,CGGTCCAC,-0.195
24,CTCCGCCA,-0.14
25,GCACCTCC,-0.215

row,Sequence,binding signal [E-score]
1,CAACTGTG,-0.0366
2,ACGCCTCA,-0.126
3,CTTGTATA,0.219
4,CTCTCGGA,-0.0983
5,CATAAGCG,-0.0592
6,ACCAACTA,0.185
7,ATCTGTTC,-0.0604
8,TATCACGA,0.115
9,ACGATGGG,-0.0978
10,CTATGCTC,-0.158
11,CGAGTCGA,-0.195
12,GCATCAAC,0.0602
13,CCCGTAAA,0.076
14,ATAGCTCC,-0.156
15,AGCTCTAA,-0.106
16,CAATTCGC,0.0831
17,GGTAATAC,0.281
18,AGCAATTC,0.0581
19,GCAGACGC,-0.181
20,ATCGCAAA,0.0841
21,CAACCTAA,-0.0627
22,GCATCCCC,-0.271
23,AGTCACAA,0.086
24,ACACCGGT,-0.00892
25,CCATAGCC,-0.27

row,Sequence,binding signal [E-score]
1,AGAACACC,-0.0908
2,CTAAAACC,-0.148
3,CCATCATC,-0.308
4,GAATTGCA,-0.0598
5,ACGGATTC,0.00983
6,CCATGCTC,-0.345
7,CCGCTAGA,0.07
8,AGGGTCCC,-0.164
9,TATGCATA,0.235
10,AAGATACT,0.234
11,GGAAGACA,-0.189
12,CGTGTTTC,-0.161
13,AGTATCCC,-0.045
14,CGGATTGA,-0.0865
15,GGCCCTGA,-0.119
16,ATGCTGGG,-0.0874
17,AGTCGTGA,-0.195
18,AGGTCGGG,-0.224
19,ATACACAC,0.108
20,ATGTTATC,0.206
21,AAAGGCCG,-0.157
22,CGGCTTCC,-0.283
23,CTCCTCTA,-0.0263
24,AATCCAGG,-0.0693
25,CCTCCAAC,-0.135

row,Sequence,binding signal [E-score]
1,GAGCCAAA,-0.152
2,CCGCTCTC,-0.349
3,TGATCAAA,0.13
4,AACTGAAC,0.12
5,AGCCTTAT,-0.137
6,ATGGTTCC,-0.111
7,CGAGTCAG,-0.171
8,ACGTCGAG,-0.0266
9,ACGGTTGC,-0.00987
10,AGCTATTG,0.177
11,AGCCGAAC,-0.0778
12,CACAAAAC,0.0504
13,CTTATTGC,0.0358
14,CATGCCAG,-0.138
15,AACATTGC,0.133
16,AGATGATA,0.219
17,AGAAAGCC,-0.101
18,ACTAGACG,-0.0512
19,CTAACCAA,0.178
20,CAATCGGG,-0.12
21,ACATTGCG,0.00807
22,AGTCCGAT,-0.025
23,ATGAGGAA,-0.168
24,AATAGCCC,0.014
25,CCGTCAGC,-0.321

row,Sequence,binding signal [E-score]
1,CGTGGCGC,-0.354
2,GCGAATCC,-0.0665
3,ATATCAAC,0.271
4,AGAGCTCT,-0.0778
5,AGTTCGGG,-0.0319
6,ACTTCCCT,0.0316
7,CAATGATG,0.161
8,CTACCCTA,0.224
9,GTTAGTTA,0.258
10,AAAGACCG,-0.163
11,CATAGAAG,0.23
12,AACAAGTT,0.0961
13,GAAGCTTC,-0.0784
14,TGCTACAA,0.307
15,AGCGTGAC,-0.254
16,CGTACACG,-0.0387
17,CCAGGGAG,-0.272
18,AGGGGGAT,-0.433
19,GAGGCCAC,-0.162
